{"source": "PubChem BioAssay AID686979", "about": "(National Center for Advancing Translational Sciences (NCATS), 2013)", "note": "About 50,000 (12%) of roughly 420,000 compounds were called active. Inconclusive means that the source gave no clear call. Such entries were picked first, then a sample of the others. Calls come from the whole dose curve; as a rule, active = well fitted inhibition curve with a large enough effect; inconclusive = small, poorly fitted or top-dose-only effect; inactive = flat fitted curve, though single readings scatter. No potency is given beside an inconclusive call; the fits are too rough. % is set by controls: 0 for no effect and ±100 for the full control effect; potency is the fitted concentration of half-maximal effect; tags give direction and shape of the fitted curve.", "data": [{"test": "qHTS for Inhibitors of human tyrosyl-DNA phosphodiesterase 1 (TDP1): qHTS in cells in presence of CPT; note: nearly all actives have a fitted effect of over 55% in size", "conditions": "chicken DT40 Tdp1-/-;hTDP1 cells + 20 nM CPT, ATP luminescence, 48 h; activity change, negative = growth inhibition: at 46.2 µM (top of the series) unless noted", "in_short": "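Cell growth measured by CellTiter-Glo luminescence after a minimum 48 h, 37 C compound exposure with 20 nM CPT in Tdp1-knockout DT40 cells stably expressing hTDP1, seeded 400/well; qHTS titration format.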", "values": [{"smiles": "CN(C)c1ccc(C=c2c3ccccc3n3c2cc(-c2ccc(Cl)cc2)[n+]3C)cc1", "Potency": "active: 4.11 µM"}, {"smiles": "Cc1ccc(-c2nn3cnnc3c3ccccc23)cc1C", "Potency": "inconclusive [inhibitor, partial curve]"}, {"smiles": "CCO[C@@H]1OC(C(=O)N2CCN(Cc3ccc4c(c3)OCO4)CC2)=C[C@H](C2CC2)[C@H]1CCCO", "Potency": "inconclusive [inhibitor, single point]"}, {"smiles": "COC(=O)c1c(NC(=O)c2ccccc2N(C)S(=O)(=O)c2ccccc2)sc2c1CCCC2", "Potency": "active: 16.4 µM"}, {"smiles": "Cc1ccc(-c2ccc([C@H]3[C@H]4C=CC[C@@H](C)[C@@H]4C(=O)N3Cc3ccccc3)c(F)c2)cc1", "Potency": "inconclusive [inhibitor, single point]"}, {"smiles": "CC(=O)Nc1ccc(S(=O)(=O)Nc2cc(C)cn(Cc3ccccc3)c2=O)cc1", "Potency": "inconclusive [inhibitor, single point]"}, {"smiles": "CCN(CC)C(=O)c1[nH]cnc1C(=O)Nc1cccc(Cl)c1", "Potency": "inconclusive [inhibitor, single point]"}, {"smiles": "O=[N+]([O-])c1ccc2c(c1)nc(CO)n2Cc1ccccc1", "Potency": "inconclusive [inhibitor, single point]"}, {"smiles": "C=CCOc1ccc(NC(=O)C(=O)NCCCn2ccnc2)cc1", "activity change, negative = growth inhibition": "inactive: -14.3%"}, {"smiles": "CC(=O)OCCCN(C)CC/C=C1/c2ccccc2CSc2ccccc21", "Potency": "inconclusive [inhibitor, partial curve]"}, {"smiles": "CCCn1c(N2CCN(CC(=O)c3c(C)n(C)c4ccc(OC)cc34)CC2)nc2c1c(=O)[nH]c(=O)n2C", "Potency": "inconclusive [inhibitor, single point]"}, {"smiles": "COc1cccc(C(=O)Nc2sc3c(c2C#N)CCN(C(C)=O)C3)c1", "Potency": "active: 2.06 µM"}, {"smiles": "O=C(Cc1ccccc1)NCC(=O)Nc1ccccc1Br", "activity change, negative = growth inhibition": "inactive: 7.81%"}, {"smiles": "CCCCN1CCCC1C(=O)Nc1c(C)cc(C)cc1C", "note": "(centres undefined)", "Potency": "inconclusive [inhibitor, single point]"}, {"smiles": "CCc1ccc(C2CC3C(CN2S(=O)(=O)c2ccc(C)cc2)C(=O)CC(c2ccc(CC)cc2)N3S(=O)(=O)c2ccc(C)cc2)cc1", "note": "(centres undefined)", "Potency": "inconclusive [inhibitor, single point]"}, {"smiles": "CCCOC(=O)C(C)n1nnc2sc(-c3ccccc3)cc2c1=O", "note": "(centres undefined)", "Potency": "inconclusive [inhibitor, single point]"}, {"smiles": "Cc1ccn2c(Nc3ccc4c(c3)OCO4)c(-c3ccc(O)cc3)nc2c1", "Potency": "active: 23.1 µM"}, {"smiles": "Cc1cc(C)cc(Nc2ncc3c(n2)CC(c2ccco2)CC3=O)c1", "note": "(centres undefined)", "Potency": "inconclusive [inhibitor, partial curve]"}, {"smiles": "O=C(CSCc1cnn(-c2ccccc2)c1-n1cccc1)NCc1ccccc1F", "Potency": "inconclusive [inhibitor, single point]"}, {"smiles": "COc1ccc(Cl)cc1C(=O)NNC(=O)c1cccs1", "Potency": "inconclusive [inhibitor, single point]"}, {"smiles": "CCOC(=O)[C@]12CCC=C1N(Cc1ccc(Cl)cc1Cl)C(=O)[C@H](CC(=O)NCCC(C)C)C2", "Potency": "inconclusive [inhibitor, single point]"}, {"smiles": "CCCSc1ccc([C@@H]2[C@@H]3C(=O)N(C)C(=O)[C@@H]3[C@]3(C(=O)OC)CCCN23)cc1OC", "Potency": "active: 18.4 µM"}, {"smiles": "O=C(c1cc(-c2cccc(Cl)c2)on1)N1CCOCC1", "activity change, negative = growth inhibition": "inactive: 17.5%"}, {"smiles": "COc1ccc(C(=O)Nc2nc3ccc(OC)cc3s2)cc1", "Potency": "inconclusive [inhibitor, single point]"}, {"smiles": "COc1ccccc1CNc1ncnc2ccc(-c3cccnc3)cc12", "Potency": "inconclusive [inhibitor, single point]"}, {"smiles": "CCOC(=O)c1c(C)[nH]c(N=Nc2cccc(OC)c2)c1C", "activity change, negative = growth inhibition": "inactive: -4.95%"}, {"smiles": "CC(C)C[C@H](NC(=O)c1nc[nH]c1C(=O)N1CCN(C(=O)OC(C)(C)C)CC1)C(=O)OC(C)(C)C", "Potency": "inconclusive [inhibitor, single point]"}, {"smiles": "CCCN1CCN(c2ncnc3sc(C(=O)Nc4ccc(N(CC)CC)cc4C)c(C)c23)CC1", "Potency": "active: 23.1 µM"}, {"smiles": "CC(=O)Nc1ccc(Nc2ccc([N+](=O)[O-])cn2)cc1", "Potency": "inconclusive [inhibitor, single point]"}, {"smiles": "COCCCn1c(C)nnc1SCc1ccc(C(C)(C)C)cc1", "Potency": "inconclusive [inhibitor, single point]"}, {"smiles": "CCOC(=O)c1sc2nc(C)nc(N3CCN(S(=O)(=O)c4ccccc4)CC3)c2c1C", "Potency": "active: 8.2 µM"}, {"smiles": "Cc1ccc2oc(C(=O)Nc3ccc(S(=O)(=O)N(C)Cc4ccccc4)cc3)cc(=O)c2c1", "Potency": "inconclusive [inhibitor, partial curve]"}, {"smiles": "CCOc1cc2c(C#N)c(N3CCCCC3)nc(N)c2c(N)n1", "Potency": "inconclusive [inhibitor, single point]"}, {"smiles": "CC1(OC(=O)C2CCCC2)C(=O)C=C2C=C(c3ccsc3)N(C3CC3)C=C2C1=O", "note": "(centres undefined)", "Potency": "inconclusive [inhibitor, single point]"}, {"smiles": "CC[C@@H](C)[C@H](NS(=O)(=O)c1cccc2ccccc12)C(=O)N[C@H](C=O)Cc1c[nH]c2ccccc12", "Potency": "active: 5.92 µM"}, {"smiles": "CCc1ccc(-n2c(=O)c3c4c(sc3n(CC(=O)NCCCOC)c2=O)CCC4)cc1", "Potency": "inconclusive [inhibitor, partial curve]"}, {"smiles": "CC(C)C[C@H]1CNC(=O)C(=O)N1C[C@H]1CCCN1C[C@H](Cc1ccc(O)cc1)N1C[C@H](CC(C)C)N(CC2CCCCCC2)C(=O)C1=O", "Potency": "inconclusive [inhibitor, single point]"}, {"smiles": "O=C(NC1CC2CCCC(C1)N2C(=O)Nc1ccc(Cl)c(C(F)(F)F)c1)C1CC1", "note": "(centres undefined)", "Potency": "inconclusive [inhibitor, single point]"}, {"smiles": "COCCCNc1ccn2nc(-c3ccc(Cl)cc3)cc2n1", "Potency": "inconclusive [inhibitor, single point]"}, {"smiles": "C/C(=N\\Nc1nc2c(s1)CCCC2)c1ccccc1", "Potency": "active: 16.4 µM"}, {"smiles": "COc1ccc(NC(=O)c2cc(-c3cc(Cl)ccc3C)n[nH]2)cn1", "Potency": "active: 23.1 µM"}, {"smiles": "CN(C)S(=O)(=O)Nc1ccc(-c2cn3ccsc3n2)cc1", "Potency": "inconclusive [inhibitor, single point]"}, {"smiles": "O=S(=O)(NC1CCN(Cc2ccccc2)CC1)c1cccc(S(=O)(=O)N2CCOCC2)c1", "Potency": "inconclusive [inhibitor, single point]"}, {"smiles": "C[C@]12CC[C@@H]3c4ccc(O)cc4CC[C@H]3[C@@H]1C[C@@H](O)[C@@H]2O", "activity change, negative = growth inhibition": "inconclusive: -36.3% [inhibitor]"}, {"smiles": "N#Cc1ccc(NC(=S)NC(=O)C2CC2)cc1", "activity change, negative = growth inhibition": "inactive: 0.482%"}, {"smiles": "OC(c1ccc(CN2CCCCC2)cc1)c1ncc(-c2ccccc2)[nH]1", "note": "(centres undefined)", "activity change, negative = growth inhibition": "inactive: 5.35%"}, {"smiles": "Cc1ccsc1/C=C/c1n[nH]c(=O)c(C#N)c1C", "activity change, negative = growth inhibition": "inactive: 9.53%"}, {"smiles": "CCOC(=O)c1cc(-c2ccc(/C=N\\n3cnnc3)o2)ccc1Cl", "activity change, negative = growth inhibition": "inactive: -15.8%"}, {"smiles": "COc1ccc(-c2nn3c(-c4cccc(C)c4)nnc3s2)cc1OC", "Potency": "inconclusive [inhibitor, single point]"}, {"smiles": "O=c1c2ccccc2nc(SCc2cccc(F)c2)n1C1CCCC1", "Potency": "inconclusive [inhibitor, single point]"}, {"smiles": "CC1CCN(c2oc(-c3ccccc3F)nc2C#N)CC1", "Potency": "active: 16.4 µM"}, {"smiles": "O=C(CCCCn1c(=O)c2ccccc2n(Cc2ccc(F)cc2Cl)c1=O)NCc1ccco1", "Potency": "active: 18.4 µM"}, {"smiles": "CCOC1(OCC)C(c2ccc(N)cc2)C(C#N)(C#N)C1(OCC)OCC", "note": "(centres undefined)", "activity change, negative = growth inhibition": "inactive: -19.1%"}, {"smiles": "Cc1ccc(CNC(=O)CCNS(=O)(=O)c2cccc3nonc23)cc1", "activity change, negative = growth inhibition": "inactive: 0.319%"}, {"smiles": "Cc1sc2ncn(CC(=O)NCCCC(=O)N3CCC(C)CC3)c(=O)c2c1C", "activity change, negative = growth inhibition": "inactive: 5.07%"}, {"smiles": "Cc1ccc2c(c1)C1CN(C)CCC1N2S(=O)(=O)c1ccc(C(C)C)cc1", "note": "(centres undefined)", "Potency": "inconclusive [inhibitor, single point]"}, {"smiles": "Cn1nc(-c2ccc(Cl)cc2)c2cc(C(=O)N3CCN(c4ccccc4)CC3)sc21", "Potency": "inconclusive [inhibitor, single point]"}, {"smiles": "CC(=O)Nc1ccc(N2CCOCC2)c(S(=O)(=O)Nc2ccccc2Cl)c1", "activity change, negative = growth inhibition": "inactive: -13.2%"}, {"smiles": "Cc1cccc(Nc2nc(N3CCOCC3)nc(N3CCOCC3)n2)c1", "Potency": "active: 9.2 µM"}, {"smiles": "CCOc1cc(/C=C2\\C(=O)ON=C2c2ccccc2)cc(Br)c1O", "Potency": "inconclusive [inhibitor, single point]"}, {"smiles": "Cc1ccccc1-c1c(C)oc2cc(O)ccc2c1=O", "Potency": "inconclusive [inhibitor, partial curve]"}, {"smiles": "COc1ccc(-c2csc3ncnc(Oc4cccc5ccc(C)nc45)c23)cc1", "Potency": "active: 16.4 µM"}, {"smiles": "COC(=O)c1ccc(OC(=O)CS(=O)c2ccccc2[N+](=O)[O-])cc1", "note": "(centres undefined)", "Potency": "inconclusive [inhibitor, single point]"}, {"smiles": "CC(NC(=O)c1ccc2nc(CCc3ccccc3)oc2c1)c1ccccc1", "note": "(centres undefined)", "Potency": "active: 20.6 µM"}, {"smiles": "Cc1ccccc1Cn1c(C)c(CNCc2ccccc2)c(C(=O)O)c1C", "activity change, negative = growth inhibition": "inactive: -1%"}, {"smiles": "COc1ccc([C@H]2CC(=O)C=C(c3cc(C)ccc3OC)C2)cc1", "Potency": "active: 4.11 µM"}, {"smiles": "Cc1ccc(Cl)cc1N1C(=O)CC(Sc2ncccn2)C1=O", "note": "(centres undefined)", "Potency": "inconclusive [inhibitor, single point]"}, {"smiles": "COc1cccc(-c2cnc(C(O)c3ccc(F)c(F)c3)[nH]2)c1", "note": "(centres undefined)", "Potency": "inconclusive [inhibitor, single point]"}, {"smiles": "OC[C@@H]1CN(Cc2ccccc2)C[C@H](n2cnc3c(NCc4ccc(F)cc4)ncnc32)O1", "Potency": "inconclusive [inhibitor, single point]"}]}]}
